From article PMC12820563, “FoxP3 forms a head-to-head dimer in vivo and stabilizes its multimerization on adjacent microsatellites”
Some of the results follow.

Biological target: T1, MBP-FoxP1dN (Mus musculus, UniProt P58462 326-579)
T1 sequence: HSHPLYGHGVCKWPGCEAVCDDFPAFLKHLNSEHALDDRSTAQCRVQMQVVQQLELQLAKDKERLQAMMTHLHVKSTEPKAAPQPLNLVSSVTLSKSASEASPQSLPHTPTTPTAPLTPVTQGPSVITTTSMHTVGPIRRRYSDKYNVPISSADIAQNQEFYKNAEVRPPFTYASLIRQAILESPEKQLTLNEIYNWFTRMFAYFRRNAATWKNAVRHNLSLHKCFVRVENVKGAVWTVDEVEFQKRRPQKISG
Assay: PD-seq (MBP pull-down with sequencing); 20 mM Tris-HCl pH 7.5, 100 mM NaCl, 1.5 mM MgCl2, 0.4 uM protein, 0.1 uM dsDNA library, 30 min, room temperature, amylose pull-down; high values mean tight binding
Conditions: protein: recombinant; tags: His6-MBP; chain copies: 2; dsDNA, one strand shown
How it was run: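 The N-terminus-lacking fragment of mouse FoxP3 or FoxP1 carried a His6-MBP tag and was expressed in E. coli. At 0.4 µM it was incubated with 0.1 µM Klenow-filled degenerate double-stranded DNA library for 30 min at room temperature in Tris pH 7.5 buffer with NaCl and MgCl2, and complexes were caught on amylose resin, washed three times, released with proteinase K, PCR-barcoded and Illumina-sequenced. Binding is reads-per-million enrichment of pull-down over input with replicates pooled.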

Sequence	binding signal
GATGATTGTTCTCCCAGCTGATGAATTACAGTAGTCGAGTAAACAAATTTTCCTAATCTTTCTGTTCAAGCGCCATCTAC	1.09 RPM ratio (pull-down/input)
GATGATTGTTCTCCCAGCTGATGAATTTCCTACCTCGAGTAAACAAATTTTCCTAATCTTTCTGTTCAAGCGCCATCTAC	0.823 RPM ratio (pull-down/input)
GATGATTGTTCTCCCAGCTGATGAATTTATCAGGTCGAGTAAACAAATTTTCCTAATCTTTCTGTTCAAGCGCCATCTAC	0.981 RPM ratio (pull-down/input)
GATGATTGTTCTCCCAGCTGATGAATTGTCGGTGTCGAGTAAACAAATTTTCCTAATCTTTCTGTTCAAGCGCCATCTAC	1.04 RPM ratio (pull-down/input)
GATGATTGTTCTCCCAGCTGATGAATTCCCATGTTCGAGTAAACAAATTTTCCTAATCTTTCTGTTCAAGCGCCATCTAC	0.835 RPM ratio (pull-down/input)
GATGATTGTTCTCCCAGCTGATGAATTGCGTAGATCGAGTAAACAAATTTTCCTAATCTTTCTGTTCAAGCGCCATCTAC	1.09 RPM ratio (pull-down/input)
GATGATTGTTCTCCCAGCTGATGAATTTTGTTCCTCGAGTAAACAAATTTTCCTAATCTTTCTGTTCAAGCGCCATCTAC	0.981 RPM ratio (pull-down/input)
GATGATTGTTCTCCCAGCTGATGAATTCTCACTGTCGAGTAAACAAATTTTCCTAATCTTTCTGTTCAAGCGCCATCTAC	0.801 RPM ratio (pull-down/input)
GATGATTGTTCTCCCAGCTGATGAATTTAGATAATCGAGTAAACAAATTTTCCTAATCTTTCTGTTCAAGCGCCATCTAC	1.4 RPM ratio (pull-down/input)
GATGATTGTTCTCCCAGCTGATGAATTCTACTGCTCGAGTAAACAAATTTTCCTAATCTTTCTGTTCAAGCGCCATCTAC	0.819 RPM ratio (pull-down/input)
GATGATTGTTCTCCCAGCTGATGAATTTTCACTTTCGAGTAAACAAATTTTCCTAATCTTTCTGTTCAAGCGCCATCTAC	0.998 RPM ratio (pull-down/input)
GATGATTGTTCTCCCAGCTGATGAATTGCCGCGGTCGAGTAAACAAATTTTCCTAATCTTTCTGTTCAAGCGCCATCTAC	0.878 RPM ratio (pull-down/input)
GATGATTGTTCTCCCAGCTGATGAATTCGGGGACTCGAGTAAACAAATTTTCCTAATCTTTCTGTTCAAGCGCCATCTAC	0.792 RPM ratio (pull-down/input)
GATGATTGTTCTCCCAGCTGATGAATTTAACTAGTCGAGTAAACAAATTTTCCTAATCTTTCTGTTCAAGCGCCATCTAC	0.88 RPM ratio (pull-down/input)
GATGATTGTTCTCCCAGCTGATGAATTTTTGGACTCGAGTAAACAAATTTTCCTAATCTTTCTGTTCAAGCGCCATCTAC	0.873 RPM ratio (pull-down/input)
GATGATTGTTCTCCCAGCTGATGAATTGTGCCGCTCGAGTAAACAAATTTTCCTAATCTTTCTGTTCAAGCGCCATCTAC	0.979 RPM ratio (pull-down/input)
GATGATTGTTCTCCCAGCTGATGAATTGATGAGTTCGAGTAAACAAATTTTCCTAATCTTTCTGTTCAAGCGCCATCTAC	1.01 RPM ratio (pull-down/input)
GATGATTGTTCTCCCAGCTGATGAATTCCGGGTGTCGAGTAAACAAATTTTCCTAATCTTTCTGTTCAAGCGCCATCTAC	0.748 RPM ratio (pull-down/input)
GATGATTGTTCTCCCAGCTGATGAATTTCAAAGATCGAGTAAACAAATTTTCCTAATCTTTCTGTTCAAGCGCCATCTAC	0.87 RPM ratio (pull-down/input)
GATGATTGTTCTCCCAGCTGATGAATTAAATCAATCGAGTAAACAAATTTTCCTAATCTTTCTGTTCAAGCGCCATCTAC	1.01 RPM ratio (pull-down/input)
GATGATTGTTCTCCCAGCTGATGAATTCCGCGCCTCGAGTAAACAAATTTTCCTAATCTTTCTGTTCAAGCGCCATCTAC	0.852 RPM ratio (pull-down/input)

Sequence	binding signal
GATGATTGTTCTCCCAGCTGATGAATTGCTCATCTCGAGTAAACAAATTTTCCTAATCTTTCTGTTCAAGCGCCATCTAC	0.978 RPM ratio (pull-down/input)
GATGATTGTTCTCCCAGCTGATGAATTATCAAGGTCGAGTAAACAAATTTTCCTAATCTTTCTGTTCAAGCGCCATCTAC	0.91 RPM ratio (pull-down/input)
GATGATTGTTCTCCCAGCTGATGAATTAGGAACTTCGAGTAAACAAATTTTCCTAATCTTTCTGTTCAAGCGCCATCTAC	0.84 RPM ratio (pull-down/input)
GATGATTGTTCTCCCAGCTGATGAATTACTTAAATCGAGTAAACAAATTTTCCTAATCTTTCTGTTCAAGCGCCATCTAC	1.24 RPM ratio (pull-down/input)
GATGATTGTTCTCCCAGCTGATGAATTGATCTGTTCGAGTAAACAAATTTTCCTAATCTTTCTGTTCAAGCGCCATCTAC	0.987 RPM ratio (pull-down/input)
GATGATTGTTCTCCCAGCTGATGAATTAACTCGTTCGAGTAAACAAATTTTCCTAATCTTTCTGTTCAAGCGCCATCTAC	0.871 RPM ratio (pull-down/input)
GATGATTGTTCTCCCAGCTGATGAATTGGCCGGATCGAGTAAACAAATTTTCCTAATCTTTCTGTTCAAGCGCCATCTAC	0.771 RPM ratio (pull-down/input)
GATGATTGTTCTCCCAGCTGATGAATTGTGATATTCGAGTAAACAAATTTTCCTAATCTTTCTGTTCAAGCGCCATCTAC	1.38 RPM ratio (pull-down/input)
GATGATTGTTCTCCCAGCTGATGAATTTAATCTGTCGAGTAAACAAATTTTCCTAATCTTTCTGTTCAAGCGCCATCTAC	0.927 RPM ratio (pull-down/input)
GATGATTGTTCTCCCAGCTGATGAATTCAAATCGTCGAGTAAACAAATTTTCCTAATCTTTCTGTTCAAGCGCCATCTAC	0.871 RPM ratio (pull-down/input)
GATGATTGTTCTCCCAGCTGATGAATTTTTGGCCTCGAGTAAACAAATTTTCCTAATCTTTCTGTTCAAGCGCCATCTAC	0.858 RPM ratio (pull-down/input)
GATGATTGTTCTCCCAGCTGATGAATTCCGGTATTCGAGTAAACAAATTTTCCTAATCTTTCTGTTCAAGCGCCATCTAC	0.906 RPM ratio (pull-down/input)
GATGATTGTTCTCCCAGCTGATGAATTCCGAACATCGAGTAAACAAATTTTCCTAATCTTTCTGTTCAAGCGCCATCTAC	0.898 RPM ratio (pull-down/input)
GATGATTGTTCTCCCAGCTGATGAATTGATCTGGTCGAGTAAACAAATTTTCCTAATCTTTCTGTTCAAGCGCCATCTAC	0.905 RPM ratio (pull-down/input)
GATGATTGTTCTCCCAGCTGATGAATTGCTCCCGTCGAGTAAACAAATTTTCCTAATCTTTCTGTTCAAGCGCCATCTAC	0.978 RPM ratio (pull-down/input)
GATGATTGTTCTCCCAGCTGATGAATTTGCCCGTTCGAGTAAACAAATTTTCCTAATCTTTCTGTTCAAGCGCCATCTAC	0.889 RPM ratio (pull-down/input)
GATGATTGTTCTCCCAGCTGATGAATTCAACTCTTCGAGTAAACAAATTTTCCTAATCTTTCTGTTCAAGCGCCATCTAC	0.904 RPM ratio (pull-down/input)
GATGATTGTTCTCCCAGCTGATGAATTTCAACGATCGAGTAAACAAATTTTCCTAATCTTTCTGTTCAAGCGCCATCTAC	0.82 RPM ratio (pull-down/input)
GATGATTGTTCTCCCAGCTGATGAATTTCCTCTGTCGAGTAAACAAATTTTCCTAATCTTTCTGTTCAAGCGCCATCTAC	0.834 RPM ratio (pull-down/input)
GATGATTGTTCTCCCAGCTGATGAATTTGACGCTTCGAGTAAACAAATTTTCCTAATCTTTCTGTTCAAGCGCCATCTAC	0.974 RPM ratio (pull-down/input)
GATGATTGTTCTCCCAGCTGATGAATTGATCTAATCGAGTAAACAAATTTTCCTAATCTTTCTGTTCAAGCGCCATCTAC	1.19 RPM ratio (pull-down/input)

Sequence	binding signal
GATGATTGTTCTCCCAGCTGATGAATTGTTTGTCTCGAGTAAACAAATTTTCCTAATCTTTCTGTTCAAGCGCCATCTAC	2.6 RPM ratio (pull-down/input)
GATGATTGTTCTCCCAGCTGATGAATTACCCGTATCGAGTAAACAAATTTTCCTAATCTTTCTGTTCAAGCGCCATCTAC	0.971 RPM ratio (pull-down/input)
GATGATTGTTCTCCCAGCTGATGAATTTGCTCCTTCGAGTAAACAAATTTTCCTAATCTTTCTGTTCAAGCGCCATCTAC	0.972 RPM ratio (pull-down/input)
GATGATTGTTCTCCCAGCTGATGAATTTGTGGTCTCGAGTAAACAAATTTTCCTAATCTTTCTGTTCAAGCGCCATCTAC	1.05 RPM ratio (pull-down/input)
GATGATTGTTCTCCCAGCTGATGAATTGGGACCGTCGAGTAAACAAATTTTCCTAATCTTTCTGTTCAAGCGCCATCTAC	0.804 RPM ratio (pull-down/input)
GATGATTGTTCTCCCAGCTGATGAATTTACGCAGTCGAGTAAACAAATTTTCCTAATCTTTCTGTTCAAGCGCCATCTAC	1.12 RPM ratio (pull-down/input)
GATGATTGTTCTCCCAGCTGATGAATTGGGATACTCGAGTAAACAAATTTTCCTAATCTTTCTGTTCAAGCGCCATCTAC	0.929 RPM ratio (pull-down/input)
GATGATTGTTCTCCCAGCTGATGAATTGCGAATTTCGAGTAAACAAATTTTCCTAATCTTTCTGTTCAAGCGCCATCTAC	1.26 RPM ratio (pull-down/input)
GATGATTGTTCTCCCAGCTGATGAATTGATGGAGTCGAGTAAACAAATTTTCCTAATCTTTCTGTTCAAGCGCCATCTAC	0.934 RPM ratio (pull-down/input)
GATGATTGTTCTCCCAGCTGATGAATTTTCGGATTCGAGTAAACAAATTTTCCTAATCTTTCTGTTCAAGCGCCATCTAC	0.943 RPM ratio (pull-down/input)
GATGATTGTTCTCCCAGCTGATGAATTTGAGCCATCGAGTAAACAAATTTTCCTAATCTTTCTGTTCAAGCGCCATCTAC	0.869 RPM ratio (pull-down/input)
GATGATTGTTCTCCCAGCTGATGAATTATGATACTCGAGTAAACAAATTTTCCTAATCTTTCTGTTCAAGCGCCATCTAC	1.12 RPM ratio (pull-down/input)
GATGATTGTTCTCCCAGCTGATGAATTGTATGCTTCGAGTAAACAAATTTTCCTAATCTTTCTGTTCAAGCGCCATCTAC	1.18 RPM ratio (pull-down/input)
GATGATTGTTCTCCCAGCTGATGAATTCGCATTGTCGAGTAAACAAATTTTCCTAATCTTTCTGTTCAAGCGCCATCTAC	1.2 RPM ratio (pull-down/input)
GATGATTGTTCTCCCAGCTGATGAATTCAAAGACTCGAGTAAACAAATTTTCCTAATCTTTCTGTTCAAGCGCCATCTAC	0.798 RPM ratio (pull-down/input)
GATGATTGTTCTCCCAGCTGATGAATTTCCAAGATCGAGTAAACAAATTTTCCTAATCTTTCTGTTCAAGCGCCATCTAC	0.831 RPM ratio (pull-down/input)
GATGATTGTTCTCCCAGCTGATGAATTATTTTTATCGAGTAAACAAATTTTCCTAATCTTTCTGTTCAAGCGCCATCTAC	1.4 RPM ratio (pull-down/input)
GATGATTGTTCTCCCAGCTGATGAATTAAATCTGTCGAGTAAACAAATTTTCCTAATCTTTCTGTTCAAGCGCCATCTAC	0.778 RPM ratio (pull-down/input)
GATGATTGTTCTCCCAGCTGATGAATTCTCCTGATCGAGTAAACAAATTTTCCTAATCTTTCTGTTCAAGCGCCATCTAC	0.841 RPM ratio (pull-down/input)
GATGATTGTTCTCCCAGCTGATGAATTTGAGCTGTCGAGTAAACAAATTTTCCTAATCTTTCTGTTCAAGCGCCATCTAC	0.889 RPM ratio (pull-down/input)
GATGATTGTTCTCCCAGCTGATGAATTAGCTTGTTCGAGTAAACAAATTTTCCTAATCTTTCTGTTCAAGCGCCATCTAC	0.973 RPM ratio (pull-down/input)
